The values below come from article PMC10726135.

The other results are listed elsewhere or left out. At the low end of the ranking the order means little. Measured with an extract: partners may take part in the binding.

For the assay, the target named is T1, HNF4alpha2 (COS-7 nuclear extract) (UniProt P41235).
T1 sequence: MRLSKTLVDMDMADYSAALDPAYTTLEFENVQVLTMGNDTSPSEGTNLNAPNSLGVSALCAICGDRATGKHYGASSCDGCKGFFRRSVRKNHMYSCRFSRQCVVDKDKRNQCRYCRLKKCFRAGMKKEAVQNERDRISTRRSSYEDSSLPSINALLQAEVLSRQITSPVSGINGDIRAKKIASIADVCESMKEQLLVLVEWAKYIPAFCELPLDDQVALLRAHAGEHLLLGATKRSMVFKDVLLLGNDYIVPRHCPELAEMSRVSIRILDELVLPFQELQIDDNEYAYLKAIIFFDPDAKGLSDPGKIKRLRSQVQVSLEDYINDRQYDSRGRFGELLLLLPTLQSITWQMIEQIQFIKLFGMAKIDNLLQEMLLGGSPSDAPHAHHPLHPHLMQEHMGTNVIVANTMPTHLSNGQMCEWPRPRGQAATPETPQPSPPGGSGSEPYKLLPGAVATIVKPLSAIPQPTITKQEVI
The experiment in a line: protein-binding microarray. To be noted: COS-7 nuclear extract on double-stranded Agilent 4x180k PBM; binding buffer, salt, pH and temperature not given; high values mean tight binding; double strand, one strand shown; sequences stand for … in …GCCTAGGGAGATTAGAGTATCGGTCGA
For GGGAGCAGTGGGGACGCCTTCCCCTGCCAC, the binding signal (log2 normalized intensity) is -1.18. With GCTGGCCTGTCTCCTGGCCTATTGTTCTTC the figure was 1.45; with ATTATTAATTTACTGAAAAGTCTACCTTTG, 0.892; with CATTTGGGACAAAGTTCATCTGGGCTTTAG, 2.88. With GGATTCCCAGATGGAGTGCTCTGAACCGTG the figure was 0.22; with TTTCTGGTTCTCCAGCTAGCAAACAGCATA, -0.713; with GCGACTTTAGGGGCCAAGGGAAAACTTCCC, -1.19. With TGACCTTTGTCCTGGCACAACTGGATGGTG the figure was 5; with TCCAATTAGGAGATCAGCCCGTGTCTGGGC, -0.819; with CCTAGGTGCTGAAGATGCAACAGTGACCCA, 2.44. On to ATAGCGTCTCCTGGCCTCTGTGAAGTGGAG, for which the binding signal (log2 normalized intensity) was -1.05. With CAGGCCTAACCCCTAACCCAGTGAATTCCT the figure was 2.7; with CTTAGGGTCAATGGGACATTGCATTCCACC, 0.845.

TGTCGTTTTCCCGGTTTGTTCCATGCCACA: the binding signal (log2 normalized intensity) turned out to be 1.42. Then CTGGATGTTTTGATGAACTTTCAAGATGAA, with 1.1; and CTGTGTCATCTGAACTCTGACCAACGCCTC, with 2.73; and CTAGCTACTAGCCATTTCGGCACCTTCTAC, with -1.08.

With CAGCAGACACGGGCAGGTGAGAGGGCTCTG, the binding signal (log2 normalized intensity) was -1.02. With TCAAGGACCTGCTCTGGGGCTACCTCAGGG, the binding signal (log2 normalized intensity) is -1.17. With ACCATGGATGCACTCCATTTACAGACCAAT, the binding signal (log2 normalized intensity) was -1.1.

Take ATGTAAGGCACTTTATCTAGATAAGTTTAT: the binding signal (log2 normalized intensity) was -1.16.

Consider CATGGACAGCACTTAGGGTTCAAAGGTTGT, for which the binding signal (log2 normalized intensity) is 6.18. As to TCAAGAAGGGCAGTTGACAGAGGACCAAGG, the binding signal (log2 normalized intensity) is -1.04. With GGTTCAGCTCCATCTGAACTCTTCATGGAC the figure was 1.29; with TTTACCGAAATGTGGGTGAGGCTGTGATGT, 1.89; with CCTGTCACTCAATGCAGCAGCATTGGACCC, 5.34. Regarding GCAGCTCCAATTAGGAGATCAGCCCGTGTC, the binding signal (log2 normalized intensity) was -1.24.

For TGTTCATACTGCAGCTCTGCGTCTTACTAA, the binding signal (log2 normalized intensity) is -0.643. Regarding GCCGTGCATGCTTGGACTCTGAAGGAATGT, the binding signal (log2 normalized intensity) was 1.82.

Regarding TCAGATAGCTTTAGCCGGACTTTGTCCTTT, the binding signal (log2 normalized intensity) is 7.78.

As to TAATTACAGAGCAAGTAGAGCTGCTTACAT, the binding signal (log2 normalized intensity) was -1.07.

AGGAGTTTGTTCACCCACCAGAGGGAACGC: the binding signal (log2 normalized intensity) is -1.26.

As to TGTTAGAGGGTGGTGGGTGAAGGATGGAAT, the binding signal (log2 normalized intensity) was 0.649.

Take GTGGCTAGGACCTTTGAACCAGAGAAGATT: the binding signal (log2 normalized intensity) was determined as 3.44.

Take AGTATCTTAGCCAAAGAGAAGCCTAAGCAG: the binding signal (log2 normalized intensity) was -1.08.

Turning to GGTTCACCGCTCACTGCTCCAGCCACTCAT, the binding signal (log2 normalized intensity) was -0.809. Then TTTCTGTATAAGACAACCTTTGTTCACAGT, with 3.2.

For TGAGCTCTGATGGCGTATGCAGCAGGGCAG, the binding signal (log2 normalized intensity) is -1.03.

With TAGAGCTGTCCAGCAGACAATGGGAGACAT, the binding signal (log2 normalized intensity) was -1.07. With ACTCACACACCCCAAAAGGTCAATCTGGAT the figure was 3.48.

As for AAAAGCCAAGGCATCTGGGGGCTTGTCAGA, the binding signal (log2 normalized intensity) was -1.05. Take GATCAAAGAATTCCTAATAATACTGACTGA: the binding signal (log2 normalized intensity) is -1.25. For GGCAGTAAGATAAGGAGGTAGAGTCTAAGG, the binding signal (log2 normalized intensity) was -1.24. Then GCAACCACAGCCTCTGCATTTGCTCCCTGA, with -1.14; and CTGGGCAGGCGCCGACTGCCAGGAGGGGAC, with -1.08. For the sequence TTCATCCTCCCATACAGGATCGGTCACATT, the binding signal (log2 normalized intensity) was determined as 2.07. Then ATCTTATCGCCTAGTACTCCTGCCCCTGTG, with 2.08; and TAGGGCCCCCTGTGATTACTTCCACTCTTG, with 0.57.

Take AGTAGGTTTACTAAAGGAAGGGAGGTGAGT: the binding signal (log2 normalized intensity) was 0.43. With AATAGGCCCTCCCAGCCTATTAACCCCAAA the figure was 5.15; with TTCAGCAAATATTGAATGTGTTACACCTGT, 1.53.

Take ACTATCAGTGAAGAGCAAACAATCAGTGAA: the binding signal (log2 normalized intensity) is -1.04.

As for CATATCTAGGATCACGCCATGAGTTGGGGA, the binding signal (log2 normalized intensity) is -1.1. For the sequence AAATCCCCGCCTTTGACACAGGCGACCTTC, the binding signal (log2 normalized intensity) was determined as 3.94. As for TCCGTGGTAACACACATTAGCTTCCCGGCT, the binding signal (log2 normalized intensity) is -1.18. Then CACGGTAGCATGCTCTCTTGTCAAGACCGA, with -1.12; and CAGTTATCAGACAGAGGAATTCAGCAGGAT, with -0.611; and CATTTGAACCCAACCGTCCAGAGTCCACGT, with 3.93. Then TGACTAGATTTCTGTCTGTTTTCCCCTTCC, with 2.75; and CCATGGTAAGAACTACAGTTGACCTTTGAA, with 7.38. Then CAACTGACATCTGGAAATGTTTGTAGGGAC, with 0.308. With GGCTGTGTCGGTATAAGTTCTACATTCCCA, the binding signal (log2 normalized intensity) was -0.443.

On to CTCCAGGGCACTGCCCTTTGGAACCTGCCC, for which the binding signal (log2 normalized intensity) turned out to be 5.54. Turning to CTCCACTACATTAGCAGCGCCACCAACCAT, the binding signal (log2 normalized intensity) was 4.07. With GGAGATAACCCATCTGGGGAAAGTGCAAGG the figure was -0.913; with AGGGAGCAGAGTCCCAAGCATCTCTGAGCA, -1.08. With AATCATGTAGCCAGATAAGAGCTATCAATG the figure was -1.21. With TGAACACAGTTCGAACAGTTGGCCACCTTT the figure was 1.09. Turning to AGGGTAGGAGAAGCTGGAAGGACAGCATTC, the binding signal (log2 normalized intensity) was -1.05. Then TGAAGTTGGATAACCTTCTGCTGGATGCCC, with 0.018. Then CAGATTCCTGAGCCCAGATCCTCTAAATTC, with -1.03; and CCTTTCCCCTAAAGGAGGCAAGGTCCAAAC, with 3.47. With GGGTTGGTATTACAAAGCAATCTACTTTTC the figure was 0.235. Consider TATGGCTGGGATATCAGGTATTGCCCAGTA, for which the binding signal (log2 normalized intensity) was determined as 0.611. Then TATTGAGAAGAAACCTTTGCCCAACAGGAT, with 1.12.

For the sequence CTAAAAAAATAGTTTCAACTTAACCCCAGT, the binding signal (log2 normalized intensity) worked out at 3.05.

Take CCCTGCCTAAACAAGGCAGACTTGGATTTT: the binding signal (log2 normalized intensity) was found to be 0.122. Then CTTTCGCCCTTTGTCCTATGACTCTCTCAA, with 2.96; and TGAGCACACACTCACGGACCCTGTTACCAC, with -1.03. For ACAGATGGTGACCAGACTACCTCTTTAGGC, the binding signal (log2 normalized intensity) is -1.06. For GACCTACTTAGTCTCCAGCCCCCAGAGGTC, the binding signal (log2 normalized intensity) amounted to 4.4. With TTGCTGTCTCTTCCACCTGGAATGCACTTG the figure was 1.5; with CCCCGCGTCCGTGCACCCTTCCTCTGCAGC, 1.33; with GGGAGGTGTTTATCTTGTGGTTGGAATGTT, 2.49. With CCAAGAACAAACAAAAACCAAAAAAACTTA the figure was -1.16; with TGCTGTCTAGAAAGATTGCAGCAAGGAATT, -1.03. With AGCATCTAAACCTCTGCACACAGGATGTTT the figure was -1.27; with GAAGTGGGGGTGAGTCAGTCCCCAGCAATT, 1.33. Regarding AGGGTGTGTAAAACAGGTGAAAGATAAGGG, the binding signal (log2 normalized intensity) was -1.02. With CTTCATGGACTCCTCTTATCTTCAGGTATC the figure was 1.14. On to TCTGGTCATGGCCCTGAGGGAGGAGAGAGG, for which the binding signal (log2 normalized intensity) was -1.11. Then CGCCACAGCACCACCTGCTGGTCAGGAGAC, with -1.14; and GATGGAGATCATCCTGCAGTTCCTGATCTT, with -0.826.
